# Assay results as given in patent publication US9458483B2, “Compositions comprising a polypeptide having cellulolytic enhancing activity and a bicyclic compound and uses thereof” (Novozymes, Inc., priority 2010, dated 2016).
# B1: T. aurantiacus GH61A polypeptide: GH61A polypeptide having cellulolytic enhancing activity (SEQ ID NO: 14), recombinantly prepared in Aspergillus oryzae JaL250 (protein, listed as Thermoascus aurantiacus)
# chain: MSFSKIIATAGVLASASLVAGHGFVQNIVIDGKYYGGYLVNQYPYMSNPPEVIAWSTTATDLGFVDGTGYQTPDIICHRGAKPGALTAPVSPGGTVELQWTPWPDSHHGPVINYLAPCNGDCSTVDKTQLEFFKIAESGLINDDNPPGIWASDNLIAANNSWTVTIPTTIAPGNYVLRHEIIALHSAQNQDGAQNYPQCINLQVTGGGSDNPAGTLGTALYHDTDPGILINIYQKLSSYIIPGPPLYTG
# Key:
# [1] = biological target: T1, Thermoascus aurantiacus GH61A polypeptide (Thermoascus aurantiacus, UniProt G3XAP7, N13Y); type: biochemical; conditions: AVICEL
# Experimental: Milled washed PCS was prepared according to the procedure described below.
# Control saccharification reactions containing equivalent methanol-containing buffer concentrations, 2% and 10% (v/v) methanol, or no methanol, were performed on each 96-well plate. […] All experiments were performed in triplicate, unless otherwise indicated.
# The filtrates were analyzed for sugar content as described below. […] Data were processed using MICROSOFT EXCEL® software (Microsoft, Richland, Wash., USA), or […]® software (Synergy Software, Reading, Pa., USA).
# [formula] where 1.111 represents the mass conversion factor accounting for the hydration of glucose produced from the cellulose polymer. The fractional hydrolysis is defined herein as the conversion expressed as a fraction rather than as a percent (i.e., % conversion/100).
# [formula] […] Thus for saccharification reactions where only the presence of a bicyclic compound differs, a difference in GH61 effect can be attributed to the effect of the bicyclic compound on the cellulolytic enhancing effect of the GH61 polypeptide.
# The concentration of each compound tested was 1 mM, with the following exceptions: cyanidin chloride (0.52 mM), cyanin chloride (0.26 mM), genistin (0.39 mM), kuromanin chloride (0.34 mM), keracyanin chloride (0.26 mM), and rhamnetin (0.53 mM).
# [2] = biological target: T1, Thermoascus aurantiacus GH61A polypeptide; test: AVICEL cellulolysis by T. reesei cellulase composition with combinations of compounds and T. aurantiacus GH61A polypeptide; type: biochemical; conditions: most mixtures of compounds at 1 mM
molecule,measurement,setting,value
Oc1cc(O)c2cc(O)c(-c3ccc(O)c(O)c3)[o+]c2c1.[Cl-] [cyanidin chloride],GH61 effect,"[1]; compound 0.52 mM, 3 days of hydrolysis",1.62±0.136
same,GH61 effect,"[1]; compound 0.52 mM, 7 days of hydrolysis",1.86±0.171
OC[C@H]1O[C@@H](Oc2cc3c(O[C@@H]4O[C@H](CO)[C@@H](O)[C@H](O)[C@H]4O)cc(O)cc3[o+]c2-c2ccc(O)c(O)c2)[C@H](O)[C@@H](O)[C@@H]1O [cyanin chloride],GH61 effect,"[1]; compound 0.26 mM, 3 days of hydrolysis",1.12±0.0403
same,GH61 effect,"[1]; compound 0.26 mM, 7 days of hydrolysis",1.11±0.0197
O=c1c(O)c(-c2ccc(O)cc2O)oc2cc(O)cc(O)c12 [morin hydrate],GH61 effect,"[1]; compound 1 mM, 3 days of hydrolysis",1.13±0.0644
same,GH61 effect,"[1]; compound 1 mM, 7 days of hydrolysis",1.17±0.125
B1,overall conversion compared among GH61 polypeptides,[2],greatest overall conversion

# Read-outs that look alike come from different tables or passages of the source.
